In the supplement of paper PMC10441789 one finds antibody binding signal data, which are given here for 40 sequences.

This is one part of the list. Antibody binding of pooled human sera (four to six donors per pool; dilution not stated) to peptides of the Trypanosoma cruzi antigen TSSA on microarrays. Quantile-normalised fluorescence in arbitrary units, mean of duplicate arrays; higher = more binding. No active / inactive call. The uninfected pools are read here as the healthy donors of the same country. The strongest signals lie near the top of the scale (about 60,000).

In this assay the test system is pooled sera of uninfected people, USA. In words: antibody binding signal (normalised fluorescence) (arbitrary fluorescence units); higher = stronger serum antibody binding to peptide. Here is the method: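 Microarray of 15-residue peptides over residues 30-55 of Trypanosoma cruzi TSSAII, each with 1 to 10 substitutions at naturally variable positions, probed with one serum pool per country.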
Sequence SGTDKKPATGETPSQ yielded an antibody binding signal of 181. The result for SGKEKKTATGGAPSQ reads 108; that for TDNKTAAGGTPSPPG, 155; that for KKPATGGAPSPPGAS, 442. As for KDKKPATGEAPSPSG, the figure is 137. As for KDNKAATGGTPSQPG, the antibody binding signal is 96.9. The sequence SSTPPSGKENKPAAG gave an antibody binding signal of 735. As for SGTENKTAAGETPSP, the figure is 396; as for GTENKAATGETPSQS, 88; as for STPPSGTENKTAAGG, 702. As for TENKTATGGAPSPSG, the figure is 229. The result for PSGTDNKPAAGGTPS reads 240; that for GTENKAATGGTPSPP, 89.3.

In turn, GKEKKAATGETPSQP yielded an antibody binding signal of 100. Sequence TEKKAAAGGAPSPSG had an antibody binding signal of 302. The result for PPSGKDNKAATGEAP reads 183; that for DKKPAAGEAPSPSGA, 154; that for GTDKKPAAGEAPSQS, 120.

In turn, DNKPAAGGAPSPSGA came in with an antibody binding signal of 189. As for TEKKAAAGGAPSPPG, the figure is 269; as for PPSGKDKKPAAGEAP, 135. The result for PPSGTEKKAATGEAP reads 242.

Sequence NKAAAGETPSPSGAS yielded an antibody binding signal of 929. As for TISTPPSGKDKKAAA, the figure is 198; as for KTATGETPSQSGASS, 163; as for GKDKKAAAGEAPSQP, 74.8. The result for GKEKKPAAGGAPSQP reads 276; that for PSGTDNKAATGGAPS, 236. The result for TPPSGKEKKPAAGGA reads 225; that for TEKKTATGEAPSQSG, 174. TDNKAAAGGTPSQPG yielded an antibody binding signal of 124.

Sequence ENKAATGEAPSPSGA gave an antibody binding signal of 104. KKTATGEAPSQSGAS returned an antibody binding signal of 392.

The sequence GKDKKPATGEAPSPS had an antibody binding signal of 123.

KENKAAAGGTPSPSG had an antibody binding signal of 105. The result for TDKKPATGETPSQSG reads 172. In turn, DKKAATGETPSPSGA came in with an antibody binding signal of 1090. As for STPPSGKDKKAAAGE, the figure is 85.1; as for TISTPPSGKDNKTAA, 258. As for TPPSGTDNKAATGEA, the figure is 149.
